Out of some 46,000 compounds screened, about 60 (0.1%) were called active. Roughly 3% stayed inconclusive and do not appear here. Calls follow the shape of the dose curve; as a rule, active = well fitted inhibition curve with a large enough effect; inconclusive = small, poorly fitted or top-dose-only effect; inactive = no such curve, though single readings can be large or run the other way. Some of the results follow.
Test: Primary qHTS assay for Inhibitors of ovarian cancer metastasis using an organotypic tumor microenvironment (TME) model. Also: nearly all actives have a fitted effect of over 65% in size.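 As to activity change, negative = inhibition: plate controls were DMSO wells for no effect and tomatine positive control wells for full effect.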
Details: SKOV3ip1-GFP adhesion/invasion on 3D omental model, fluorescence; series mostly up to 45.8 µM; activity change, negative = inhibition: at the top concentration
In short: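 Primary human omental fibroblast/mesothelial 3D culture pre-formed 48 h. SKOV3ip1-GFP cells added with compounds (0.36-46 umol/L), incubated 2 h RT/16 h 37 C, fixed; GFP cells quantified at 488/509 nm.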

Activity change, negative = inhibition, inactive:
O=C(Nc1cccc(C(F)(F)F)c1)c1ccc2snnc2c1 15.4%, CCc1ccc(NC(=O)Nc2nnc(N(C)C3CCCCC3)s2)cc1 9.99%, CCOc1ccc(CCNC(=O)c2cc3c(s2)-c2c(C)cccc2OC3)cc1 -11%, CCOc1ccc(-c2nnc(SCC(=O)c3ccc(Br)cc3)n2-c2ccccc2)cc1 -5.64%, O=S(=O)(Nc1ccc(F)cc1F)c1ccc(-n2cccn2)cc1 2.3%, COCCn1c(SCC(=O)c2c[nH]c3ccccc23)nc2cc(C(=O)NC(C)C)ccc2c1=O -1.64%, COCCCNC(=O)c1ccc(C)c(-n2c(C)nc3cccnc32)c1 0.993%, Cc1nc2ccn(Cc3cccnc3)c(=O)c2cc1C(=O)Nc1ccc(F)cc1F 4.61%, CCOC(=O)Cn1c(=O)oc2cc(S(=O)(=O)N3CCC(C(=O)OCC)CC3)ccc21 -9.16%, Cc1ccc(NC(=O)CSc2nnc(-c3ccc(Br)cc3)o2)c(C)c1 0.736%, Cc1cc(C)c2c(=O)cc(C(=O)NCc3ccc(S(N)(=O)=O)cc3)oc2c1 -3.55%, COCCCNC(=O)CSc1nc(-c2ccc(OC)c(OC)c2)[nH]c1-c1ccc(F)cc1 0.0919%, CCc1ccc(NC(=O)CCc2nnc3n(C)c(=O)c4sccc4n23)cc1 69.3%, COC(=O)c1cc2oc3ccccc3c2n1Cc1c(C)cc(C)cc1C -3.95%, O=C1[C@H](Cc2ccc(O)cc2)N2C(=O)CCN(C(=O)NCc3ccccc3)[C@H]2CN1Cc1cccc2ccccc12 -28.8%, Cc1ccc(C2=NC(c3ccccc3)=Nc3ccc(Cl)cc3N2)cc1 18.3%, Cc1nc2cccnc2n1-c1cccc(C(=O)NCCc2ccc(S(N)(=O)=O)cc2)c1 -9.37%, Cc1cccc(NC(=O)C2CCCN(S(=O)(=O)c3ccc(Br)s3)C2)c1 (configuration not stated) 3.23%, COc1cc2ccccc2cc1C(=O)Nc1cccc(-c2nc3cc(C)ccc3o2)c1C 8.15%, Cc1ccccc1S(=O)(=O)Cc1ccc(C(=O)N2CCN(c3cccc(Cl)c3)CC2)o1 -1.58%

outcome, inactive:
O=C(CN1C(=O)CCc2cc(S(=O)(=O)N3CCOCC3)ccc21)NCc1ccc(Cl)cc1, Cc1ccc(OCC(=O)Nc2ccc3nc(SCCOc4ccccc4)sc3c2)cc1, Cc1cc(C)c(NC(=O)CSc2nc3ccncc3[nH]2)c(C)c1, COc1ccc(CNC(=O)c2ccc3nc(C(C)C)oc3c2)cc1OC, Cc1ccc(NC(=O)CN2C(=O)COc3ccc(S(=O)(=O)Nc4ccccc4)cc32)c(C)c1, Cc1nn2c(=O)cc(COC(=O)COc3ccc(F)cc3)nc2s1, COc1ccc(NC(=O)C2=CC(c3ccco3)=NS(=O)(=O)N2C)cc1
